For 59 molecules, inhibition results are on record in PubChem BioAssay AID485344 (National Center for Advancing Translational Sciences (NCATS), 2010).

Molecules are shown by their SMILES. Where “and” joins values, the source holds several entries; their conditions need not be identical. Equal values may be shown once. The campaign covered roughly 340,000 compounds. About 6,900 (2%) were called active. Cut-off read from the data, not from the text of the source: active = inhibition above about 30%; inactive = below that, where a call was filed. The list shows a part of the results, in another mix than the full data. The source gives no active or inactive call for entries shown without one.

The target of the experiment is D(2) dopamine receptor (Homo sapiens) (UniProt P14416). Briefly: HTS Assay for Allosteric Antagonists of the Human D2 Dopamine Receptor: Primary Screen for Antagonists. Note: 0% is about no effect. Particulars: HEK293 TREx D2 cells, calcium flux, dopamine EC80; at 10 µM; stronger effect = higher value. The procedure, abridged: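 Inhibition of EC80 dopamine-driven calcium flux, recorded kinetically, defines activity here; cells are a tetracycline-induced HEK293 T-REx line expressing force-coupled D2.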
Sequence of UniProt P14416 (P14416 whole entry, looked up): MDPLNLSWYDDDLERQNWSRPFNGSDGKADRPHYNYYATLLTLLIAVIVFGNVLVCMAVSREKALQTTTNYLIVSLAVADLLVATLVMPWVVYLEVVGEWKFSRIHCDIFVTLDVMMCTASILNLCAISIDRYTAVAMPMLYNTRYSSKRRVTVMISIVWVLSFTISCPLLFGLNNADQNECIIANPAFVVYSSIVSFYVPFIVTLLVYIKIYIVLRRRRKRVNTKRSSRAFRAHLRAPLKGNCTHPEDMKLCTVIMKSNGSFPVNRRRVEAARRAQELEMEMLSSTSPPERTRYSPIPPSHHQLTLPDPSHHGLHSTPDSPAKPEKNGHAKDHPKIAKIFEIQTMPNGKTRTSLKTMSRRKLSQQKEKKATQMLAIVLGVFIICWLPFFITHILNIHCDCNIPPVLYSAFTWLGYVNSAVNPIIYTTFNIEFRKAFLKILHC
For orientation: Calcium flux is commonly read through the fluorescence of an indicator in the cells.
Usually inhibition stands for the relative decrease from the control value, in per cent. Regarding `COCCOC(=O)C1=C(C)N=C2SCCC(=O)N2C1c1ccc(OCc2ccccc2)c(OC)c1` (centres undefined), the inhibition stood at 6.32%. As to `COCCCNc1nc2c(c(=O)n(C)c(=O)n2C)n1Cc1ccccc1`, the inhibition was 6.68%. In the case of `COCCNC(=O)CCSc1nc(-c2ccc3c(c2)OCO3)cc(C(F)(F)F)n1`, the inhibition is 2.67%. With `CCOC(=O)/C=c1\s/c(=C\c2ccc3c(c2)OCCO3)c(=O)n1CC(=O)NCC1CCCO1` (centres undefined) the figure was active: 55%; with `CCc1nnc2c(NCc3cccc(OC)c3)nc3ccccc3n12`, 5.5%; with `Cc1ccc(N2CC(c3nnc(Cc4ccccc4Cl)o3)CC2=O)cc1` (centres undefined), 17%.

For `COc1ccccc1Cc1nc2ccccc2nc1SCC(=O)Nc1ccccc1C(F)(F)F`, the inhibition was 9.78%.

Take `COc1ccc(-c2nc3c(C#N)c[nH]n3c2NC2CCCC2)cc1`: the inhibition is 6.01%. With `COc1ccc(S(=O)(=O)n2nc(-c3ccco3)nc2NCc2ccc(OC)c(OC)c2)cc1` the figure was 2.96%; with `COc1ccc(N(CC(=O)Nc2ccc3c(c2)OCO3)S(=O)(=O)c2ccc(C)cc2)cc1OC`, active: 54.3%; with `COc1ccc(N(C(=O)c2ccc(Cl)cc2)S(=O)(=O)c2ccc(C)cc2)cc1`, 7.52%. With `CCC1CN(S(=O)(=O)c2ccc3c(c2)NC(=O)CC(=O)N3)c2cc(Cl)ccc2O1` (centres undefined) the figure was -4.34%; with `Cc1cccc(N2CCN(C(=O)CCC(=O)NNc3nc4ccccc4c4nc(C)nn34)CC2C)c1` (centres undefined), -7.76%. Turning to `Cn1c(=O)c2c(-c3ccccc3Cl)n(Cc3ccc(Cl)cc3)cc2n(C)c1=O`, the inhibition came to 12.7%.

For the molecule `COc1cc(C2c3c(-c4c(C)cc(C)cc4O)n[nH]c3C(=O)N2CCCOC(C)C)cc(OC)c1OC` (centres undefined), the inhibition was -20.1%.

For the molecule `CCc1ccccc1NC(=O)CN1C(=O)COc2ccc(S(=O)(=O)Nc3ccccc3)cc21`, the inhibition was 0.824%. `CCc1ccccc1NC(=O)N1CCc2cc(OC)c(OC)cc2C1CC(=O)OC` (centres undefined): the inhibition was found to be 2.6%. With `O=C(COC(=O)c1ccc(O)cc1)Nc1ccc(OC(F)F)cc1` the figure was active: 31.8%; with `Cc1ccc(NC(=O)Cn2c(=O)n(CCCS(=O)(=O)C3CCCCC3)c(=O)c3ccccc32)cc1F`, -8.45%; with `COc1ccc(S(=O)(=O)c2cc3cc(OC)ccc3oc2=O)cc1`, 3.99%. With `CCOc1ccc(CNC(=O)c2cc3c(s2)-c2ccccc2OC3)cc1` the figure was -21.9%. The value for `COc1cccc(-n2c(SCC(=O)N3CCCc4ccccc43)nc3c([nH]c4ccccc43)c2=O)c1` was -11.7%; that for `COc1cc(NC(=O)NC(C)c2c(-n3cccc3)sc3c2CCN(C)C3)cc(OC)c1` (centres undefined) was 0.694%; that for `COC1CCCCC1NS(=O)(=O)c1ccc(Cl)cc1` (centres undefined) was active: 30.9%.

With `CCCOc1ccc(CNC(=O)Cn2cc3c(n2)-c2c(oc(C(=O)N4CCOCC4)c2C)CC3)cc1`, the inhibition is -9.51%. The value for `CCc1ccc(S(=O)(=O)NCc2nc3cccnc3n2Cc2ccccc2Cl)cc1` was -5.4%; that for `COc1ccc(Cl)cc1NC(=O)Cn1c(=O)n(CCCC(=O)NCCc2ccc(OC)c(OC)c2)c(=O)c2ccccc21` was -3.84%. The value for `O=C(NCCC1=CCCCC1)C1CCN(c2nnc(-n3cccc3)s2)CC1` was active: 47.8%; that for `O=C(CCSCc1cccc(F)c1)NCc1ccccc1` was 0.168%; that for `CCOc1ccccc1NC(=O)C(=O)c1cc(C)n(-c2ccc(F)cc2)c1C` was -5.32%. The value for `CCOc1ccc(-n2cc(-c3ccccc3)c3c(N4CCC(C)CC4)ncnc32)cc1` was -21.4%. For the molecule `CCS(=O)(=O)c1nc(S(=O)(=O)c2ccc(C)cc2)c(NC(C)c2ccccc2)s1` (centres undefined), the inhibition was determined as 14.6%. Take `COc1ccc(-c2nnc(Nc3ccc(OC)c(C(N)=O)c3)c3ccccc23)cc1`: the inhibition amounted to 8.94%. Take `CCc1ccc2oc(-c3cccc(NC(=O)C(C)(C)Oc4ccc(Br)cc4)c3)nc2c1`: the inhibition was -1.95%. As to `Cc1ccc(S(=O)(=O)c2nc(-c3ccc(F)cc3)oc2SCC(=O)c2ccccc2)cc1`, the inhibition was -9.67%. The value for `Cc1cc(C)cc(Nc2ncnc3onc(-c4ccc(F)cc4)c23)c1` was 3.68%; that for `O=S(=O)(c1ccc(Cl)cc1)c1nnn2c1nc(NCc1cccs1)c1sccc12` was -2.36%; that for `CCOc1ccc(-n2c(=O)c3c4c(sc3n(CC(=O)NC(C)CC)c2=O)CCC4)cc1` (centres undefined) was -3.41%. With `CN(C)S(=O)(=O)N(CC(=O)NCCSCc1cccc(Cl)c1)c1ccccc1` the figure was 19.9%; with `CCOC(=O)c1ccc(N2C(=O)c3n[nH]c(-c4cccs4)c3C2c2cccc(OC)c2)cc1` (centres undefined), -1.65%; with `O=C(CSC1=N/C(=C/c2ccc(Cl)c(Cl)c2)C(=O)N1c1ccccc1F)NC1CC1`, active: 52.1%. As for `CCC(CC)C(=O)N1CCc2cc(OC)c(OC)cc2C1COc1ccc(C(=O)OC)cc1` (centres undefined), the inhibition was -13.6%. With `COc1ccc(C)cc1NC(=O)CSc1nc(=O)[nH]c2c1CCCC2` the figure was -3.27%; with `COc1cccc(N2C(=O)CSC23C(=O)N(CC(=O)Nc2cccc(Cl)c2)c2ccccc23)c1` (centres undefined), 9.76%; with `O=C(CSc1cn(CCNC(=O)c2ccccc2F)c2ccccc12)Nc1ccc(F)cc1`, 18.6%. Consider `COc1cc(CN(C(=O)COc2ccccc2Cl)c2ccccn2)cc(OC)c1OC`, for which the inhibition worked out at 6.29%. The value for `COc1cccc(-n2c(-c3ccco3)nc3c(cnn3-c3ccc(Cl)cc3)c2=O)c1` was 0.831%. Consider `CCn1c(C)c(C)c2cc(C(=O)N3CCN(c4cccc(C)c4C)CC3)ccc21`, for which the inhibition was -4.07% and active: 35.7%.

Consider `CC(C)c1ccc(CNC(=O)c2ccc(N3CCCC3)c(NC(=O)NCc3ccc(F)cc3)c2)cc1`, for which the inhibition was -23.7%. Take `COC(=O)c1c(SCC(=O)Nc2ccccc2C(F)(F)F)[nH]c2ccc(Cl)cc2c1=O`: the inhibition came to 8.42%. As to `Cc1ccc(CNC(=O)CCc2c(C)c3cc4c(C)coc4cc3oc2=O)cc1`, the inhibition was 16.2%. The value for `CCOc1ccc(/C=C(\C#N)C(=O)Nc2sc3c(c2C(=O)OC)CCC3)cc1OC` was -0.596%; that for `CCOC(=O)C1CCN(C(c2ccc(C)cc2)c2sc3nc(-c4ccco4)nn3c2O)CC1` (centres undefined) was 19.2%; that for `Cc1cccc(Nc2cc(C)nc3nc(-c4ccccc4)nn23)c1` was 3.96%. On to `COc1cccc(CC(=O)OC(C)C(=O)NCc2ccc3c(c2)OCO3)c1` (centres undefined), for which the inhibition was active: 55.1%. With `CC1=C(C(=O)Nc2cccc(F)c2)C2(CCCCC2)OC1=O` the figure was 12.9%; with `Cc1ccc(/C=C2\SC(=S)N(/N=C/c3cc([N+](=O)[O-])ccc3O)C2=O)o1`, active: 31.6%; with `O=C(CCC1N=C2c3ccccc3N=C(SCc3ccc(F)cc3)N2C1=O)N1CCN(c2ccccc2)CC1` (centres undefined), -7.24%. In the case of `Clc1ccc(-c2nc3ncccn3c2Nc2ccc3c(c2)OCCO3)cc1`, the inhibition amounted to 6.82%.
